Source: the supplement of paper PMC8728848
Some of the results follow.

Legend:
Assay in all cases: glycan array binding signal (z-score within array); higher = stronger binding
Details in all cases: glycan notation: IUPAC condensed, linker removed
[1] = molecular target: Neu5Ac(a2-6)GlcNAc(b1-4)GlcNAc(b1-4)GlcNAc
Procedure, shortened: (§1)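 The binding signal is a Z-score computed within each array. Data were drawn from 3228 arrays in the Consortium for Functional Glycomics database, restricted to those with a known protein sequence. Scores were averaged over arrays of the same protein sequence at different concentrations or buffers, and over linkers, and negative values can be taken as non-binding.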

Neu5Ac(a2-8)Neu5Ac = molecular target: Neu5Ac(a2-8)Neu5Ac
Procedure, shortened: as §1

[2] = molecular target: Neu5Ac(a2-8)Neu5Ac(a2-3)Gal(b1-3)GalNAc(b1-4)[Neu5Ac(a2-3)]Gal(b1-4)Glc
Procedure, shortened: as §1

[3] = molecular target: Neu5Ac(a2-8)Neu5Ac(a2-3)Gal(b1-3)GalNAc(b1-4)[Neu5Ac(a2-8)Neu5Ac(a2-3)]Gal(b1-4)Glc
Procedure, shortened: as §1

[4] = molecular target: Neu5Ac(a2-8)Neu5Ac(a2-3)Gal(b1-4)Glc
Procedure, shortened: as §1

[5] = molecular target: Neu5Ac(a2-8)Neu5Ac(a2-3)Gal(b1-4)GlcNAc
Procedure, shortened: as §1

[6] = molecular target: Neu5Ac(a2-8)Neu5Ac(a2-3)[Gal(b1-3)GalNAc(b1-4)]Gal(b1-4)Glc
Procedure, shortened: as §1

[7] = molecular target: Neu5Ac(a2-8)Neu5Ac(a2-3)[GalNAc(b1-4)]Gal(b1-4)Glc
Procedure, shortened: as §1

[8] = molecular target: Neu5Ac(a2-8)Neu5Ac(a2-8)Neu5Ac
Procedure, shortened: as §1

[9] = molecular target: Neu5Ac(a2-8)Neu5Ac(a2-8)Neu5Ac(a2-3)Gal(b1-4)Glc
Procedure, shortened: as §1

[10] = molecular target: Neu5Ac(a2-8)Neu5Ac(a2-8)Neu5Ac(a2-3)[Gal(b1-3)GalNAc(b1-4)]Gal(b1-4)Glc
Procedure, shortened: as §1

[11] = molecular target: Neu5Ac(a2-8)Neu5Ac(a2-8)Neu5Ac(a2-3)[GalNAc(b1-4)]Gal(b1-4)Glc
Procedure, shortened: as §1

[12] = molecular target: Neu5Ac(a2-8)Neu5Ac(a2-8)Neu5Ac(a2-8)Neu5Ac(a2-3)[GalNAc(b1-4)]Gal(b1-4)Glc
Procedure, shortened: as §1

[13] = molecular target: Neu5Ac(a2-8)Neu5Gc(a2-3)Gal(b1-4)GlcNAc
Procedure, shortened: as §1

[14] = molecular target: Neu5Ac(b2-6)Gal(b1-4)GlcNAc
Procedure, shortened: as §1

Neu5Ac(b2-6)GalNAc = molecular target: Neu5Ac(b2-6)GalNAc
Procedure, shortened: as §1

[15] = molecular target: Neu5Ac9Ac(a2-3)Gal(b1-3)GlcNAc
Procedure, shortened: as §1

[16] = molecular target: Neu5Ac9Ac(a2-3)Gal(b1-4)GlcNAc
Procedure, shortened: as §1

[17] = molecular target: Neu5Ac9Ac(a2-6)Gal(b1-4)GlcNAc
Procedure, shortened: as §1

[18] = molecular target: Neu5Gc(a2-3)Gal(b1-3)GlcNAc
Procedure, shortened: as §1

[19] = molecular target: Neu5Gc(a2-3)Gal(b1-3)[Fuc(a1-4)]GlcNAc
Procedure, shortened: as §1

Neu5Gc(a2-3)Gal(b1-4)Glc = molecular target: Neu5Gc(a2-3)Gal(b1-4)Glc
Procedure, shortened: as §1

[20] = molecular target: Neu5Gc(a2-3)Gal(b1-4)GlcNAc
Procedure, shortened: as §1

[21] = molecular target: Neu5Gc(a2-3)Gal(b1-4)GlcNAc(b1-3)Gal(b1-4)GlcNAc(b1-2)Man(a1-3)[Neu5Gc(a2-3)Gal(b1-4)GlcNAc(b1-3)Gal(b1-4)GlcNAc(b1-2)Man(a1-6)]Man(b1-4)GlcNAc(b1-4)GlcNAc
Procedure, shortened: as §1

[22] = molecular target: Neu5Gc(a2-3)Gal(b1-4)[Fuc(a1-3)]GlcNAc
Procedure, shortened: as §1

[23] = molecular target: Neu5Gc(a2-6)Gal(b1-4)GlcNAc
Procedure, shortened: as §1

Neu5Gc(a2-6)GalNAc = molecular target: Neu5Gc(a2-6)GalNAc
Procedure, shortened: as §1

[24] = molecular target: Neu5Gc(a2-8)Neu5Ac(a2-3)Gal(b1-4)GlcNAc
Procedure, shortened: as §1

[25] = molecular target: Neu5Gc(a2-8)Neu5Gc(a2-3)Gal(b1-4)GlcNAc
Procedure, shortened: as §1

[26] = molecular target: Neu5Gc(a2-8)Neu5Gc(a2-3)Gal(b1-4)GlcNAc(b1-3)Gal(b1-4)GlcNAc
Procedure, shortened: as §1

[27] = molecular target: Neu5Gc(a2-8)Neu5Gc(a2-6)Gal(b1-4)GlcNAc
Procedure, shortened: as §1

[28] = molecular target: Neu5Gc(b2-6)Gal(b1-4)GlcNAc
Procedure, shortened: as §1

B1: Banana lectin (Musa acuminata) (protein)
chain: MNGAIKVGAWGGNGGSAFDMGPAYRIISVKIFSGDVVDAVDVTFTYYGKTETRHFGGSGGTPHEIVLQEGEYLVGMKGEFGNYHGVVVVGKLGFSTNKKSYGPFGNTGGTPFSLPIAAGKISGFFGRGGDFIDAIGVYLEP
[1]
  glycan array binding signal (z-score): -0.194
Neu5Ac(a2-8)Neu5Ac
  glycan array binding signal (z-score): -0.197
[2]
  glycan array binding signal (z-score): -0.191
[3]
  glycan array binding signal (z-score): -0.194
[4]
  glycan array binding signal (z-score): -0.197
[5]
  glycan array binding signal (z-score): -0.196
[6]
  glycan array binding signal (z-score): -0.193
[7]
  glycan array binding signal (z-score): -0.19
[8]
  glycan array binding signal (z-score): -0.192
[9]
  glycan array binding signal (z-score): -0.194
[10]
  glycan array binding signal (z-score): -0.193
[11]
  glycan array binding signal (z-score): -0.192
[12]
  glycan array binding signal (z-score): -0.189
[13]
  glycan array binding signal (z-score): -0.196
[14]
  glycan array binding signal (z-score): -0.197
Neu5Ac(b2-6)GalNAc
  glycan array binding signal (z-score): -0.194
[15]
  glycan array binding signal (z-score): -0.193
[16]
  glycan array binding signal (z-score): -0.194
[17]
  glycan array binding signal (z-score): -0.193
[18]
  glycan array binding signal (z-score): -0.193
[19]
  glycan array binding signal (z-score): -0.18
Neu5Gc(a2-3)Gal(b1-4)Glc
  glycan array binding signal (z-score): -0.195
[20]
  glycan array binding signal (z-score): -0.195
[21]
  glycan array binding signal (z-score): -0.187
[22]
  glycan array binding signal (z-score): -0.194
[23]
  glycan array binding signal (z-score): -0.188
Neu5Gc(a2-6)GalNAc
  glycan array binding signal (z-score): -0.196
[24]
  glycan array binding signal (z-score): -0.194
[25]
  glycan array binding signal (z-score): -0.196
[26]
  glycan array binding signal (z-score): -0.195
[27]
  glycan array binding signal (z-score): -0.192
[28]
  glycan array binding signal (z-score): -0.193
